# Measurements: PMC4336329 (PLoS ONE, 2015)
# Out of some 310,000 compounds screened, about 2,200 (0.71%) showed an effect of 50% or more. The effect is printed as a negative number. This is one part of the list.
# Target: human ether-à-go-go-related gene (hERG) potassium channel (human, UniProt Q12809)
# Assay: primary screen, population patch clamp on CHO cells stably expressing hERG
# Chain of human ether-à-go-go-related gene (hERG) potassium channel (Q12809 whole entry, looked up): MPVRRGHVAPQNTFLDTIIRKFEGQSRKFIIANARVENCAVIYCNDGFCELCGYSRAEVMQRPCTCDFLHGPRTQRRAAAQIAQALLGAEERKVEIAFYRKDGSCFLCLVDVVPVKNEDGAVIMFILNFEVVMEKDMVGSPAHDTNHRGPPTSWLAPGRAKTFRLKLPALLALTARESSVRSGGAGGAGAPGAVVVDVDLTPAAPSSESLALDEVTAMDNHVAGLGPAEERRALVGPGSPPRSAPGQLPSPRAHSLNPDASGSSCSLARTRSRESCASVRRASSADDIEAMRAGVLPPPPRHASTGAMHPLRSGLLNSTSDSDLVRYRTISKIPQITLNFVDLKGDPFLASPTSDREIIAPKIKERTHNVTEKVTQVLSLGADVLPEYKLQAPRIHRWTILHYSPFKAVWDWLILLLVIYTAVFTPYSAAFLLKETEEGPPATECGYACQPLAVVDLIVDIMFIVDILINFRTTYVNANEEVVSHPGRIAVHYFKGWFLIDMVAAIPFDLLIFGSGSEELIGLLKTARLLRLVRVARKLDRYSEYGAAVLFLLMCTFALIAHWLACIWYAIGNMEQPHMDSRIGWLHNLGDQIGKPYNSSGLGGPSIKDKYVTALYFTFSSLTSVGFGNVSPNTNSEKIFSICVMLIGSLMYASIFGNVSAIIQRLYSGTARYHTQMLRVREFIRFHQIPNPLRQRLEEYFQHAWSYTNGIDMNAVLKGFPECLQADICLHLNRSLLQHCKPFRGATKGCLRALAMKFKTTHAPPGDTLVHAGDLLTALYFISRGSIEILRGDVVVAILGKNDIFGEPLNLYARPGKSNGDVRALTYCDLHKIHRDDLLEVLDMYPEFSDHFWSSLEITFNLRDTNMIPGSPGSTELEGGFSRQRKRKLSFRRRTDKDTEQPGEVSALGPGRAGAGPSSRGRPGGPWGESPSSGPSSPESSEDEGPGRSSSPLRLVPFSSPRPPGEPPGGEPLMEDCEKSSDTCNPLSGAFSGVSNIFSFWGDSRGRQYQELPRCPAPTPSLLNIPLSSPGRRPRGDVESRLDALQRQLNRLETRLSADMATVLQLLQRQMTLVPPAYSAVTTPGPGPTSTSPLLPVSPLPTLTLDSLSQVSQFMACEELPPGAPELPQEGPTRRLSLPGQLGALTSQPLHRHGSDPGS
row,Structure (SMILES),"hERG current change (%, negative = inhibition) at 1uM"
1,CSC(=NC#N)N1CCN(C(=NC#N)SC)CC1,6.57%
2,Cc1cccc(C(=O)Nc2ccc(CC(=O)O)cc2)c1,-0.972%
3,COC(=O)c1ccc(NC(=O)c2ccc3nc(C)sc3c2)cc1,15.4%
4,O=C1c2ccccc2C(=O)N1C/C=C/c1ccccc1,10.2%
5,Cc1ccc(/C=C/S(=O)(=O)NCC(=O)OCC(=O)NCc2ccccc2)cc1,6.6%
6,CN1CCN(C(=O)c2cnn(-c3ccccc3)c2NC(=O)c2ccccc2Cl)CC1,1.45%
7,COC(=O)C1=CNC=C(C(=O)OC)C1c1cccc2ccccc12,-8.37%
8,CCCC[C@@H]1CNC(=O)C(=O)N1CCCc1cc(OC)c(OC)c(OC)c1,15.9%
9,O=C(Cc1ccc(F)cc1)NCCc1ccccc1,5.52%
10,COc1ccc2c(c1)CC/C(=C/c1ccco1)C2=O,6.18%
11,COc1ccc(NC(=S)Nc2cc(C(F)(F)F)ccc2F)cc1,9.87%
12,COCC(C)NC(=S)NCCc1ccc(Cl)cc1Cl (stereo not drawn),16%
13,Cc1ccc(CCN2CCN=C2N(C)C)cc1,8.55%
14,c1ccc(-c2cnnc(-c3ccccn3)n2)cc1,4.98%
15,COCC(=O)N(Cc1cc2cc(C)ccc2[nH]c1=O)c1cccc(C)c1C,12.9%
16,COc1ccc(NC(=O)CCN2CCC(C)CC2)cc1,5.99%
17,Cc1ccc2oc(=O)n(CCC(=O)Nc3ccc(N4CCOCC4)cc3)c2c1,6.76%
18,Cc1ccc(S(=O)(=O)N2CCN(S(=O)(=O)c3ccc4c(c3)OCCO4)CC2)cc1,13.6%
19,O=Cc1cn(-c2ccccc2)nc1-c1ccc(F)cc1,11.3%
20,Cc1nnc(SCC(=O)NC2CCCC2)n1CCc1ccccc1,-4.85%
21,NNC(=O)C(=O)/C=C1\NC2(CCCC2)Cc2ccccc21,12.2%
22,O=C(Nc1ccc(C(F)(F)F)cc1-c1ccccc1)c1ccccc1,7.34%
23,COCC(=O)NNC(=S)Nc1cccc(C)c1C,17%

row,Structure (SMILES),"hERG current change (%, negative = inhibition) at 1uM"
1,Cc1nc([N+](=O)[O-])cn1Cc1cccc([N+](=O)[O-])c1,6.16%
2,CC(C)NC(=O)NC(=O)COC(=O)Cc1c(F)cccc1Cl,2.81%
3,CCCCNC(=O)c1onc(CSc2ccccc2C)c1C(=O)O,16.7%
4,FC(F)(F)c1cc(-c2ccco2)nc(NCc2ccc(Cl)cc2)n1,17.2%
5,O=C(CSc1nc2ccc([N+](=O)[O-])cc2[nH]1)NC1CCCCCC1,5.07%
6,CCn1c(SCC(=O)O)nnc1-c1cc2c(C)nn(-c3ccccc3)c2s1,-8.68%
7,O=c1ccc(NS(=O)(=O)c2ccccc2)cn1Cc1ccc(Cl)c(Cl)c1,12.1%
8,Cc1ccc(NC(=O)c2ccc(OCC3CCCO3)cc2)c(C)c1 (stereo not drawn),4%
9,COc1ccc(CCN2C(=S)N(c3ccc(Cl)cc3)C(=O)C2CC(N)=O)cc1OC (stereo not drawn),11.3%
10,CC(C)NS(=O)(=O)c1ccc(CCC(=O)N2CCCC2)cc1,15.7%
11,CN1/C(=C/C(=O)C2CC2)C(C)(C)c2ccccc21,11.5%
12,Cc1nn(Cc2noc(C(=O)NCc3ccccn3)n2)c(C)c1Br,5.24%
13,CCCC(=O)Nc1ccc2c(c1)nc(CN1CCCC1)n2C,17.9%
14,CCc1ccc2c(c1)c1nc(C)sc1n2CC(=O)OC,16.1%
15,Cc1ccc(CNC(=O)CSc2ccc(-c3cccs3)nn2)cc1,11.4%
16,COc1ccccc1NC(=O)COc1ccc(/C=N/NS(=O)(=O)c2ccc(C)cc2)cc1,18%
17,CCCn1c(=S)[nH]c2cc(C(=O)N3CCCC(C(=O)OCC)C3)ccc2c1=O (stereo not drawn),13.5%
18,COc1ccc2c(c1)[C@H]1[C@H](CO2)[C@H](c2ccccc2)[C@]2(C)C(=O)N[C@@H](C)C(=O)N12,16.8%
19,CCOC(=O)[C@H]1[C@H]2COc3ccc(Br)cc3[C@@H]2N2C(=O)CN(Cc3ccco3)C(=O)[C@@]12C,1.87%
20,O=C(c1ccc(Nc2cccc(C(F)(F)F)c2)nc1)N1CCCC1,-3.64%
21,O=C1CSC(=S)N1/N=C/c1cc(Br)c(O)c(Br)c1,15.6%
22,O=C(Nc1cccnc1)c1ccc(NC(=O)c2ccco2)cc1,14.2%
23,Cc1ccccc1OCCCn1cc(C(=O)C(=O)N2CCOCC2)c2ccccc21,2.01%

row,Structure (SMILES),"hERG current change (%, negative = inhibition) at 1uM"
1,O=C(c1noc2c1CCCC2)N1CCC(CO)(Cc2ccccc2Cl)CC1,14.5%
2,Cc1ccc(S(=O)(=O)Nc2ccncc2)c(C)c1N(C)S(=O)(=O)c1ccc(Cl)cc1,7.71%
3,C#CCOc1ccc(/C=C2/C(=O)NN(c3ccc(F)cc3)C2=O)cc1OC,9.35%
4,Cc1ccc(NC(=O)CN2C(=O)C3C4C=CC(C4)C3C2=O)cc1 (stereo not drawn),11.7%
5,O=c1cccc2n1Cc1cc3ccccc3nc1-2,11.2%
6,Cc1ccc(C(C)C)c(OCCN(C)C)c1.O=C(O)C(=O)O,0.147%
7,Cc1cc(C(=O)CCl)c(C)n1CCc1ccccc1,11.5%
8,O=C(Nc1ccc(N2CCOCC2)cc1)Nc1ccc(Cl)c(Cl)c1,17.2%
9,CS(=O)(=O)N1CCCC(C(=O)Nc2ccc(F)cc2F)C1 (stereo not drawn),17.9%
10,CC12CCC(=O)N1C(C(=O)Nc1cccc(S(=O)(=O)N3CCCCC3)c1)CS2 (stereo not drawn),-21%
11,CC(C)(C)c1ccc(C(=O)Nn2c(CCC(=O)O)ccc2-c2cccs2)cc1,-6.03%
12,O=C(Cn1nc(-c2ccc(N3CCOCC3)c([N+](=O)[O-])c2)c2ccccc2c1=O)N1CCCCC1,-6.5%
13,CCCCN(C(=O)CCSc1ccc(F)cc1)c1c(N)n(Cc2ccccc2)c(=O)[nH]c1=O,7.09%
14,C=CCN1C(=O)/C(=C\C(C)=C\c2ccccc2)SC1=S,9.01%
15,Cc1ccc(/C=C2/Sc3ccc(C(=O)N4CCN(c5ccccn5)CC4)cc3NC2=O)cc1,6.37%
16,Cn1c(CSc2ncccn2)nnc1SCC(=O)N1CCCc2ccccc21,7.46%
17,Cl.Fc1ccc(C(OCCN2CCN(CCCc3ccccc3)CC2)c2ccc(F)cc2)cc1,-71.3%
18,Cc1nnc(N/N=C/c2c(Cl)cccc2Cl)n1N.Cl,10.8%
19,CCc1cccc(CC)c1-n1c(SCc2cc(=O)n3ccsc3n2)nnc1-c1cccnc1,-8.44%
20,N#C/C(=C1/CCCN1)c1ccccn1,-4.39%
21,CCN(CC)C(=O)CSc1nc(-c2ccccc2)cc(=O)[nH]1,6.7%
22,COc1ccc(NC(=O)COc2ccccc2C(=O)NCC(c2ccccc2)N(C)C)cc1Cl (stereo not drawn),12.1%
23,Cc1cc(C(=O)NN=C2CCCCC2)c2ccccc2n1,2.77%

row,Structure (SMILES),"hERG current change (%, negative = inhibition) at 1uM"
1,O=C(COC(=O)c1ccc(O)cc1)Nc1cc(C(F)(F)F)ccc1N1CCOCC1,-7.14%
2,O=C(NNS(=O)(=O)c1ccc(Cl)cc1)c1cc(-c2ccccc2)n[nH]1,11.1%
3,COc1cccc(C2N=C(c3ccccc3C)NO2)c1OC (stereo not drawn),9.22%
4,Cc1ccc(CN2CCCOCCS2(=O)=O)cc1,15.7%
5,CCOC(=O)c1ccc(NC(=O)c2nc[nH]c2C(=O)NCCCNC(=O)c2[nH]cnc2C(=O)Nc2ccc(C(=O)OCC)cc2)cc1,13.8%
6,Cc1cc(CNC(=O)Nc2ccc3c(c2)OCO3)nn1C,11.2%
7,CCC(C)N=C1Sc2nc3ccc(C)cc3cc2CN1CCOC (stereo not drawn),-60.4%
8,O=c1oc2ccccc2c(NCc2ccccc2)c1[N+](=O)[O-],-9.23%
9,CC(=O)Nc1ccc(N2C(=O)CCC2=O)cc1C,11.1%
10,O=C(Nc1nc2ccccc2n1Cc1ccccc1)c1ccc(COc2ccccc2[N+](=O)[O-])o1,1.01%
11,Cn1c(SCC(=O)N2c3ccccc3Sc3ccc(Cl)cc32)nnc1-c1ccco1,-7.51%
12,C/C(=N\NC(N)=O)c1c(O)n(C)c(=O)n(C)c1=O,11.5%
13,COCC(=O)Nc1ccc(Br)cc1C,10.5%
14,Cc1ccc(NC(=O)CN2C(=O)C(C)Oc3ccccc32)nc1 (stereo not drawn),2.45%
15,CCn1cnc2c1c(=O)[nH]c(=O)n2Cc1ccccc1,14.6%
16,CCOC(=O)CNC(=O)Nc1ccccc1C(=O)OC,14.5%
17,COC(=O)C1=C(c2cc3ccccc3s2)C[C@@H]2CC[C@H]1N2C(=O)NCCO,8.67%
18,O=C(O)c1cccc(S(=O)(=O)N2Cc3ccccc3C2)c1,3.06%
19,O=C(c1ccc(F)cc1)N1CCCN(c2nc(-c3ccccc3)ns2)CC1,-0.372%
20,C[C@H](NC(=O)c1ccco1)C(=O)Nc1ccc2c(c1)OCO2,9.98%
21,COc1ccc(CCNC(=O)CCCCCNC(=O)N2CCn3c2nc2ccccc23)cc1OC,3.74%
